Measurements published in publication PMC9911399, “Two distinct binding modes provide the RNA-binding protein RbFox with extraordinary sequence specificity”.
Substitutions are numbered along the chain they refer to; changes in the protein carry UniProt numbers. Some of the results follow.

T1: RBFOX1 RRM (Homo sapiens, UniProt Q9NWB1 109-208)
T1 sequence: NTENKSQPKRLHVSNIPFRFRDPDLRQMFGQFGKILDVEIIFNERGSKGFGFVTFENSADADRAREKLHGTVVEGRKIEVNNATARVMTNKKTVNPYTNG

B1: GUCCCAG (DNA:RNA)
RNA: GGGAGACCGGAAUUCAGAUUGUCCGUCCCAGUUAAAUCCCGUCGUAGCCACCA
DNA 1: CAATCTGAATTCCGGTCTCCC
DNA 2: TGGTGGCTACGACGGGATT
B2: GGGUUGA (DNA:RNA)
RNA: B1 RNA with U26G, C27G, C28U, C29U, A30G, G31A
DNA 1: CAATCTGAATTCCGGTCTCCC
DNA 2: TGGTGGCTACGACGGGATT
B3: UAGUUAC (DNA:RNA)
RNA: B1 RNA with G25U, U26A, C27G, C28U, C29U, G31C
DNA 1: CAATCTGAATTCCGGTCTCCC
DNA 2: TGGTGGCTACGACGGGATT
B4: UCUUUUA (DNA:RNA)
RNA: GGGAGACCGGAAUUCAGAUUGUCCUCUUUUAUUAAAUCCCGUCGUAGCCACCA
DNA 1: CAATCTGAATTCCGGTCTCCC
DNA 2: TGGTGGCTACGACGGGATT
B5: UACAUCC (DNA:RNA)
RNA: B4 RNA with C26A, U27C, U28A, U30C, A31C
DNA 1: CAATCTGAATTCCGGTCTCCC
DNA 2: TGGTGGCTACGACGGGATT
B6: UGCGUAA (DNA:RNA)
RNA: B4 RNA with C26G, U27C, U28G, U30A
DNA 1: CAATCTGAATTCCGGTCTCCC
DNA 2: TGGTGGCTACGACGGGATT
B7: ACCCAUU (DNA:RNA)
RNA: B1 RNA with G25A, U26C, C29A, A30U, G31U
DNA 1: CAATCTGAATTCCGGTCTCCC
DNA 2: TGGTGGCTACGACGGGATT
B8: UUCAAUG (DNA:RNA)
RNA: B1 RNA with G25U, C28A, C29A, A30U
DNA 1: CAATCTGAATTCCGGTCTCCC
DNA 2: TGGTGGCTACGACGGGATT
B9: GACUUAA (DNA:RNA)
RNA: B1 RNA with U26A, C28U, C29U, G31A
DNA 1: CAATCTGAATTCCGGTCTCCC
DNA 2: TGGTGGCTACGACGGGATT
B10: AUAGUCC (DNA:RNA)
RNA: B1 RNA with G25A, C27A, C28G, C29U, A30C, G31C
DNA 1: CAATCTGAATTCCGGTCTCCC
DNA 2: TGGTGGCTACGACGGGATT
B11: UCUUAGA (DNA:RNA)
RNA: B4 RNA with U29A, U30G
DNA 1: CAATCTGAATTCCGGTCTCCC
DNA 2: TGGTGGCTACGACGGGATT
B12: GCUUUGA (DNA:RNA)
RNA: B4 RNA with U25G, U30G
DNA 1: CAATCTGAATTCCGGTCTCCC
DNA 2: TGGTGGCTACGACGGGATT
B13: UGCUCUA (DNA:RNA)
RNA: B4 RNA with C26G, U27C, U29C
DNA 1: CAATCTGAATTCCGGTCTCCC
DNA 2: TGGTGGCTACGACGGGATT
B14: CACUUAC (DNA:RNA)
RNA: B1 RNA with G25C, U26A, C28U, C29U, G31C
DNA 1: CAATCTGAATTCCGGTCTCCC
DNA 2: TGGTGGCTACGACGGGATT
B15: UUUUUCG (DNA:RNA)
RNA: B4 RNA with C26U, U30C, A31G
DNA 1: CAATCTGAATTCCGGTCTCCC
DNA 2: TGGTGGCTACGACGGGATT
B16: UAGUAAG (DNA:RNA)
RNA: B1 RNA with G25U, U26A, C27G, C28U, C29A
DNA 1: CAATCTGAATTCCGGTCTCCC
DNA 2: TGGTGGCTACGACGGGATT
B17: GUCUGUG (DNA:RNA)
RNA: B1 RNA with C28U, C29G, A30U
DNA 1: CAATCTGAATTCCGGTCTCCC
DNA 2: TGGTGGCTACGACGGGATT
B18: AUUGAAC (DNA:RNA)
RNA: B1 RNA with G25A, C27U, C28G, C29A, G31C
DNA 1: CAATCTGAATTCCGGTCTCCC
DNA 2: TGGTGGCTACGACGGGATT
B19: CCCAGCC (DNA:RNA)
RNA: B1 RNA with G25C, U26C, C28A, C29G, A30C, G31C
DNA 1: CAATCTGAATTCCGGTCTCCC
DNA 2: TGGTGGCTACGACGGGATT
B20: GAAGCCG (DNA:RNA)
RNA: B1 RNA with U26A, C27A, C28G, A30C
DNA 1: CAATCTGAATTCCGGTCTCCC
DNA 2: TGGTGGCTACGACGGGATT
B21: GUAGCAA (DNA:RNA)
RNA: B1 RNA with C27A, C28G, G31A
DNA 1: CAATCTGAATTCCGGTCTCCC
DNA 2: TGGTGGCTACGACGGGATT
B22: GGGGAGC (DNA:RNA)
RNA: B1 RNA with U26G, C27G, C28G, C29A, A30G, G31C
DNA 1: CAATCTGAATTCCGGTCTCCC
DNA 2: TGGTGGCTACGACGGGATT
B23: CUGUUGG (DNA:RNA)
RNA: B1 RNA with G25C, C27G, C28U, C29U, A30G
DNA 1: CAATCTGAATTCCGGTCTCCC
DNA 2: TGGTGGCTACGACGGGATT
B24: CCACGCA (DNA:RNA)
RNA: B4 RNA with U25C, U27A, U28C, U29G, U30C
DNA 1: CAATCTGAATTCCGGTCTCCC
DNA 2: TGGTGGCTACGACGGGATT
B25: GGGUGAG (DNA:RNA)
RNA: B1 RNA with U26G, C27G, C28U, C29G
DNA 1: CAATCTGAATTCCGGTCTCCC
DNA 2: TGGTGGCTACGACGGGATT
B26: UAGUUCU (DNA:RNA)
RNA: B4 RNA with C26A, U27G, U30C, A31U
DNA 1: CAATCTGAATTCCGGTCTCCC
DNA 2: TGGTGGCTACGACGGGATT
B27: GGACCGU (DNA:RNA)
RNA: B1 RNA with U26G, C27A, A30G, G31U
DNA 1: CAATCTGAATTCCGGTCTCCC
DNA 2: TGGTGGCTACGACGGGATT
B28: UACGCGA (DNA:RNA)
RNA: B1 RNA with G25U, U26A, C28G, A30G, G31A
DNA 1: CAATCTGAATTCCGGTCTCCC
DNA 2: TGGTGGCTACGACGGGATT
B29: AGGAUCC (DNA:RNA)
RNA: B4 RNA with U25A, C26G, U27G, U28A, U30C, A31C
DNA 1: CAATCTGAATTCCGGTCTCCC
DNA 2: TGGTGGCTACGACGGGATT
B30: GAUUGAU (DNA:RNA)
RNA: B1 RNA with U26A, C27U, C28U, C29G, G31U
DNA 1: CAATCTGAATTCCGGTCTCCC
DNA 2: TGGTGGCTACGACGGGATT
B31: GGGUUGC (DNA:RNA)
RNA: B4 RNA with U25G, C26G, U27G, U30G, A31C
DNA 1: CAATCTGAATTCCGGTCTCCC
DNA 2: TGGTGGCTACGACGGGATT

The binders below were run against T1, RBFOX1 RRM (assay: EMSA; HiTS-Eq, 1 nM pool, 10 min; buffer printed only for the single-RNA assays: 10 mM Tris pH 7.5, 150 mM NaCl, 3.4 mM EDTA, 0.001% NP-40, 30 C). Details: tags: His6 N-terminal (pET28a); label: 5' 32P.
Procedure, shortened: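 A pool of RNA with 7 randomized nucleotides, 5′-radiolabelled and with DNA-annealed flanks, was equilibrated at 1 nM for 10 min in 50 µL with purified RbFox RRM, wild type or mutant, across increasing protein concentrations. Free RNA was separated by 8% native PAGE, excised, reverse-transcribed, barcoded by PCR and sequenced. Relative association constants were obtained from read-count changes of each RNA species versus the control reaction and normalised to the cognate motif.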

Row | Binder | binding signal
1 | B1 | 0.00797 KA relative to UGCAUGU
2 | B2 | 0.0303 KA relative to UGCAUGU
3 | B3 | 0.0171 KA relative to UGCAUGU
4 | B4 | 0.00867 KA relative to UGCAUGU
5 | B5 | 0.00419 KA relative to UGCAUGU
6 | B6 | 0.0144 KA relative to UGCAUGU
7 | B7 | 0.000377 KA relative to UGCAUGU
8 | B8 | 0.00657 KA relative to UGCAUGU
9 | B9 | 0.00784 KA relative to UGCAUGU
10 | B10 | 0.00488 KA relative to UGCAUGU
11 | B11 | 0.0135 KA relative to UGCAUGU
12 | B12 | 0.0231 KA relative to UGCAUGU
13 | B13 | 0.0106 KA relative to UGCAUGU
14 | B14 | 0.0015 KA relative to UGCAUGU
15 | B15 | 0.0257 KA relative to UGCAUGU
16 | B16 | 0.0109 KA relative to UGCAUGU

Row | Binder | binding signal
17 | B17 | 0.0266 KA relative to UGCAUGU
18 | B18 | 0.00428 KA relative to UGCAUGU
19 | B19 | 0.000847 KA relative to UGCAUGU
20 | B20 | 0.00741 KA relative to UGCAUGU
21 | B21 | 0.0103 KA relative to UGCAUGU
22 | B22 | 0.0326 KA relative to UGCAUGU
23 | B23 | 0.0206 KA relative to UGCAUGU
24 | B24 | 0.00795 KA relative to UGCAUGU
25 | B25 | 0.0109 KA relative to UGCAUGU
26 | B26 | 0.0102 KA relative to UGCAUGU
27 | B27 | 0.0132 KA relative to UGCAUGU
28 | B28 | 0.0107 KA relative to UGCAUGU
29 | B29 | 0.0155 KA relative to UGCAUGU
30 | B30 | 0.0195 KA relative to UGCAUGU
31 | B31 | 0.0294 KA relative to UGCAUGU
